Experimental findings from patent US7652041B2, “Cinnamide and hydrocinnamide derivatives with kinase inhibitory activity” (Millennium Pharmaceuticals, Inc., priority 2005, dated 2010) are described below.

Where only a bound is given, the exact number is not on record here.

This assay relates to A375 cells. The experiment in a line: Phospho-ERK ELISA assay. It counts as cell-based. The note with it: Homo sapiens, A-375, 3 hours with inhibitor, anti-p44/42MAPK antibody ELISA, normalized for protein content. On the procedure:
Inhibition of Raf kinase activity in whole cell systems can be assessed by determining the decrease in phosphorylation of Raf kinase substrates. Any known Raf kinase substrate can be used to measure inhibition of Raf kinase activity in a whole cell system.
In a specific example, A375 cells were seeded in a 96-well cell culture plate (12×10^3 cells/100 μL/well) and incubated overnight at 37° C. Medium was removed, and cells were incubated with Raf kinase inhibitors for 3 hours at 37° C. Medium was removed, and cells were fixed with 4% paraformaldehyde for 15 minutes at room temperature.
Methanol was added for 15 min. Cells were removed and blocked with 10% sheep serum and 1% BSA in PBS overnight at 4° C. Cells were incubated with anti-p44/42MAPK antibody (1:100, Cell Signaling Technologies, #9101L) (20 μL/well) for one hour at room temperature. After washing with PBS three times, cells were stained with anti-rabbit horseradish peroxidase-linked antibody from donkey (1:100, Amersham Bioscience #NA934V) for 1 hour at room temperature. Cells were washed three times with 0.5% Tween-20 in PBS and twice with PBS. 3,3′,5,5′-Tetramethylbenzidine (TMB) liquid substrate system (Sigma, #T8665) (50 μL/well) was added, and cells were incubated for 30-45 minutes at room temperature. Optical density was read at 650 nm. Cells were then washed 3-5 times with PBS to remove color solution. Results were normalized for the protein content in each well using a BCA protein assay kit (Pierce).
In general terms: ELISA stands for enzyme-linked immunosorbent assay.
As to `O=C(CCc1cccc(Nc2ccnc(C3=NCCN3)c2)c1)Nc1ccc(Cl)c(C(F)(F)F)c1` [Compound A-156, N-[4-chloro-3-(trifluoromethyl)phenyl]-3-(3-{[2-(4,5-dihydro-1H-imidazol-2-yl)pyridin-4-yl]amino}phenyl)propanamide], the IC50 fell in the range of 1 to 10 µM.

Regarding `O=C(CCc1cccc(Oc2ccnc(C3=NCCN3)c2)c1)Nc1cc(C(F)(F)F)cc(C(F)(F)F)c1` [Compound A-157, N-[3,5-bis(trifluoromethyl)phenyl]-3-(3-{[2-(4,5-dihydro-1H-imidazol-2-yl)pyridin-4-yl]oxy}phenyl)propanamide], the IC50 is 1 to 10 µM. As to `Cc1cnc(-c2cc(Oc3cccc(CCC(=O)Nc4ccc(Cl)c(C(F)(F)F)c4)c3)ccn2)[nH]1` [Compound A-158, N-[4-chloro-3-(trifluoromethyl)phenyl]-3-(3-{[2-(5-methyl-1H-imidazol-2-yl)pyridin-4-yl]oxy}phenyl)propanamide], the IC50 was in the range of 10 to 25 µM. Then `CC(C)(C)c1ccc(NC(=O)CCc2cccc(Oc3ccnc(C4=NCCN4)c3)c2)cc1` [Compound A-161, N-(4-tert-butylphenyl)-3-(3-{[2-(4,5-dihydro-1H-imidazol-2-yl)pyridin-4-yl]oxy}phenyl)propanamide], with 1 to 10 µM; and `CN(C)CCCc1cc(NC(=O)CCc2cccc(Oc3ccnc(C4=NCCN4)c3)c2)cc(C(F)(F)F)c1` [Compound A-165, 3-(3-{[2-(4,5-dihydro-1H-imidazol-2-yl)pyridin-4-yl]oxy}phenyl)-N-[3-[3-(dimethylamino)propyl]-5-(trifluoromethyl)phenyl]propanamide], with 1 to 10 µM. Then `CC(C)(C)c1cccc(NC(=O)C(O)Cc2cccc(Oc3ccnc(C4=NCCN4)c3)c2)c1` (stereo not drawn) [Compound A-166, N-(3-tert-butylphenyl)-3-(3-{[2-(4,5-dihydro-1H-imidazol-2-yl)pyridin-4-yl]oxy}phenyl)-2-hydroxypropanamide], with 1 to 10 µM. The compound `CC1(C)OC(=O)c2ccc(NC(=O)CCc3cccc(Oc4ccnc(C5=NCCN5)c4)c3)cc21` [Compound A-169, 3-(3-{[2-(4,5-dihydro-1H-imidazol-2-yl)pyridin-4-yl]oxy}phenyl)-N-(3,3-dimethyl-1-oxo-1,3-dihydro-2-benzofuran-5-yl)propanamide] registered an IC50 of 1 to 10 µM. `COC(=O)c1cnc(-c2cc(Oc3cccc(CCC(=O)Nc4ccc(Cl)c(C(F)(F)F)c4)c3)ccn2)[nH]1` [Compound A-170, methyl 2-{4-[3-(3-{[4-chloro-3-(trifluoromethyl)phenyl]amino}-3-oxopropyl)phenoxy]pyridin-2-yl}-1H-imidazole-5-carboxylate] yielded a concentration for half-maximal inhibition (IC50) of 1 to 10 µM. As for `CN(C)C(=O)c1cnc(-c2cc(Oc3cccc(CCC(=O)Nc4ccc(Cl)c(C(F)(F)F)c4)c3)ccn2)[nH]1` [Compound A-171, 2-{4-[3-(3-{[4-chloro-3-(trifluoromethyl)phenyl]amino}-3-oxopropyl)phenoxy]pyridin-2-yl}-N,N-dimethyl-1H-imidazole-5-carboxamide], the figure is ≤ 1 µM; as for `O=C(CCc1cccc(Oc2ccnc(C3=NCCN3)c2)c1)Nc1cc(C(F)(F)F)ccc1Br` [Compound A-176, N-[2-bromo-5-(trifluoromethyl)phenyl]-3-(3-{[2-(4,5-dihydro-1H-imidazol-2-yl)pyridin-4-yl]oxy}phenyl)propanamide], 1 to 10 µM. `O=C(CCc1cccc(Oc2ccnc(C3=NC(CO)CN3)c2)c1)Nc1ccc(Cl)c(C(F)(F)F)c1` (stereo not drawn) [Compound A-178, N-[4-chloro-3-(trifluoromethyl)phenyl]-3-[3-({2-[4-(hydroxymethyl)-4,5-dihydro-1H-imidazol-2-yl]pyridin-4-yl}oxy)phenyl]propanamide] showed an IC50 of 1 to 10 µM. As for `COC(=O)C1CNC(c2cc(Oc3cccc(CCC(=O)Nc4ccc(Cl)c(C(F)(F)F)c4)c3)ccn2)=N1` (stereo not drawn) [Compound A-180, methyl 2-{4-[3-(3-{[4-chloro-3-(trifluoromethyl)phenyl]amino}-3-oxopropyl)phenoxy]pyridin-2-yl}-4,5-dihydro-1H-imidazole-4-carboxylate], the figure is 10 to 25 µM; as for `CC(=O)Nc1cc(Oc2cccc(CCC(=O)Nc3ccc(Cl)c(C(F)(F)F)c3)c2)ccn1` [Compound A-183, 3-(3-{[2-(acetylamino)pyridin-4-yl]oxy}phenyl)-N-[4-chloro-3-(trifluoromethyl)phenyl]propanamide], 1 to 10 µM.

With `CN1CCN(C(=O)c2c[nH]c(-c3cc(Oc4cccc(CCC(=O)Nc5ccc(Cl)c(C(F)(F)F)c5)c4)ccn3)n2)CC1` [Compound A-184, N-[4-chloro-3-(trifluoromethyl)phenyl]-3-{3-[(2-{4-[(4-methylpiperazin-1-yl)carbonyl]-1H-imidazol-2-yl}pyridin-4-yl)oxy]phenyl}propanamide], the IC50 is ≤ 1 µM. Then `NCc1cc(NC(=O)CCc2cccc(Oc3ccnc(C4=NCCN4)c3)c2)cc(C(F)(F)F)c1` [Compound A-186, N-[3-(aminomethyl)-5-(trifluoromethyl)phenyl]-3-(3-{[2-(4,5-dihydro-1H-imidazol-2-yl)pyridin-4-yl]oxy}phenyl)propanamide], with 1 to 10 µM; and `CN(C)C(=O)C1CNC(c2cc(Oc3cccc(CCC(=O)Nc4ccc(Cl)c(C(F)(F)F)c4)c3)ccn2)=N1` (stereo not drawn) [Compound A-187, 2-{4-[3-(3-{[4-chloro-3-(trifluoromethyl)phenyl]amino}-3-oxopropyl)phenoxy]pyridin-2-yl}-N,N-dimethyl-4,5-dihydro-1H-imidazole-4-carboxamide], with 10 to 25 µM.

On to `Cc1ccc(C(F)(F)F)cc1NC(=O)CCc1cccc(Oc2ccnc(C3=NCCN3)c2)c1` [Compound A-189, 3-(3-{[2-(4,5-dihydro-1H-imidazol-2-yl)pyridin-4-yl]oxy}phenyl)-N-[2-methyl-5-(trifluoromethyl)phenyl]propanamide], for which the IC50 is 1 to 10 µM. Then `CN(C)CCNC(=O)c1cc(NC(=O)CCc2cccc(Oc3ccnc(C4=NCCN4)c3)c2)cc(C(F)(F)F)c1` [Compound A-190, 3-{[3-(3-{[2-(4,5-dihydro-1H-imidazol-2-yl)pyridin-4-yl]oxy}phenyl)propanoyl]amino}-N-[2-(dimethylamino)ethyl]-5-(trifluoromethyl)benzamide], with 1 to 10 µM; and `COCCNC(=O)c1cc(NC(=O)CCc2cccc(Oc3ccnc(C4=NCCN4)c3)c2)cc(C(F)(F)F)c1` [Compound A-191, 3-{[3-(3-{[2-(4,5-dihydro-1H-imidazol-2-yl)pyridin-4-yl]oxy}phenyl)propanoyl]amino}-N-(2-methoxyethyl)-5-(trifluoromethyl)benzamide], with 10 to 25 µM.

For the compound `CCN1CCN(CC(=O)Nc2cc(Oc3cccc(CCC(=O)Nc4ccc(Cl)c(C(F)(F)F)c4)c3)ccn2)CC1` [Compound A-192, N-[4-chloro-3-(trifluoromethyl)phenyl]-3-{3-[(2-{[(4-ethylpiperazin-1-yl)acetyl]amino}pyridin-4-yl)oxy]phenyl}propanamide], the IC50 lay within 1 to 10 µM. `CN(C)CC#Cc1cc(NC(=O)CCc2cccc(Oc3ccnc(C4=NCCN4)c3)c2)cc(C(F)(F)F)c1` [Compound A-193, 3-(3-{[2-(4,5-dihydro-1H-imidazol-2-yl)pyridin-4-yl]oxy}phenyl)-N-[3-[3-(dimethylamino)prop-1-yn-1-yl]-5-(trifluoromethyl)phenyl]propanamide]: the IC50 was in the range of 1 to 10 µM. Then `Cc1ccc(NC(=O)CCc2cccc(Oc3ccnc(C4=NCCN4)c3)c2)cc1C(F)(F)F` [Compound A-195, 3-(3-{[2-(4,5-dihydro-1H-imidazol-2-yl)pyridin-4-yl]oxy}phenyl)-N-[4-methyl-3-(trifluoromethyl)phenyl]propanamide], with 1 to 10 µM.

Take `CC1CNC(c2cc(Oc3cccc(CCC(=O)Nc4ccc(Cl)c(C(F)(F)F)c4)c3)ccn2)=N1` (stereo not drawn) [Compound A-200, N-[4-chloro-3-(trifluoromethyl)phenyl]-3-(3-{[2-(4-methyl-4,5-dihydro-1H-imidazol-2-yl)pyridin-4-yl]oxy}phenyl)propanamide]: the IC50 fell in the range of 1 to 10 µM.

Compound `CNC(=O)c1cc(Oc2cccc(CCC(=O)Nc3cc(CCN)cc(C(F)(F)F)c3)c2)ccn1` [Compound A-201] had an IC50 of 10 to 25 µM. Then `O=C(CCc1cccc(Oc2ccnc(C3=NCCN3)c2)c1)Nc1cccc(C(F)(F)F)c1F` [Compound A-203, 3-(3-{[2-(4,5-dihydro-1H-imidazol-2-yl)pyridin-4-yl]oxy}phenyl)-N-[2-fluoro-3-(trifluoromethyl)phenyl]propanamide], with 10 to 25 µM. Compound `O=C(CCc1cccc(Oc2ccnc(-c3nc(C(=O)N4CCOCC4)c[nH]3)c2)c1)Nc1ccc(Cl)c(C(F)(F)F)c1` [Compound A-204, N-[4-chloro-3-(trifluoromethyl)phenyl]-3-[3-({2-[4-(morpholin-4-ylcarbonyl)-1H-imidazol-2-yl]pyridin-4-yl}oxy)phenyl]propanamide] came in with an IC50 of 1 to 10 µM. As to `CC1(C)CNC(c2cc(Oc3ccc(CCC(=O)Nc4ccc(Cl)c(C(F)(F)F)c4)cc3)ccn2)=N1` [Compound A-205, N-[4-chloro-3-(trifluoromethyl)phenyl]-3-(4-{[2-(4,4-dimethyl-4,5-dihydro-1H-imidazol-2-yl)pyridin-4-yl]oxy}phenyl)propanamide], the IC50 lay in the range of 1 to 10 µM.

In general, IC50 refers to the concentration at which inhibition is half-maximal. High values mean a need for much substance, low ones inhibition by little substance.
